# In the supplement of paper PMC8728848:
# This is one part of the list.
# B1: Gal 8 (Mus musculus), Q9JL15 (protein)
# chain: MGGSHHHHHHGMASMLSLNNLQNIIYNPIIPYVGTITEQLKPGSLIVIRGHVPKDSERFQVDFQLGNSLKPRADVAFHFNPHFKRSSCIVCNTLTQEKWGWEEITYDMPFRKEKSFEIVFMVLKNKFQVAVNGRHVLLYAHRISPEQIDTVGIYGKVNIHSIGFRFSSASALPHTLGDLQSMETSALGLTQINRENIQKPGKLQLSLPFEARLNASMGPGRTVVIKGEVNTNARSFNVDLVAGKTRDIALHLNPHLNVKAFVRNSFLQDAWGEEERNITCFPFSSGMYFEMIIYCDVREFKVAINGVHSLEYKHRFKDLSSIDTLSVDGDIRLLDVRSW
# Legend:
# Experiment in all cases: glycan array binding signal (z-score within array); higher = stronger binding
# Conditions in all cases: glycan notation: IUPAC condensed, linker removed; mutation: R82H, R255H
# [1] = molecular target: Neu5Ac(a2-3)Gal(b1-4)GlcNAc(b1-3)Gal(b1-4)GlcNAc(b1-2)Man(a1-3)[Neu5Ac(a2-3)Gal(b1-4)GlcNAc(b1-3)Gal(b1-4)GlcNAc(b1-2)Man(a1-6)]Man(b1-4)GlcNAc(b1-4)GlcNAc
# How it was run: (§1)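 Glycan array binding is given as a within-array Z-score, which can be read as non-binding when negative. The arrays, 3228 of them, came from the Consortium for Functional Glycomics database and were retained only where the protein sequence was available. Z-scores were averaged across arrays of the same protein sequence at different concentrations or buffers and across linkers.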
# [2] = molecular target: Neu5Ac(a2-3)Gal(b1-4)GlcNAc(b1-3)Gal(b1-4)GlcNAc(b1-3)Gal(b1-4)GlcNAc
# How it was run: as §1
# [3] = molecular target: Neu5Ac(a2-3)Gal(b1-4)GlcNAc(b1-3)Gal(b1-4)GlcNAc(b1-3)Gal(b1-4)GlcNAc(b1-2)Man(a1-3)[Neu5Ac(a2-3)Gal(b1-4)GlcNAc(b1-3)Gal(b1-4)GlcNAc(b1-3)Gal(b1-4)GlcNAc(b1-2)Man(a1-6)]GalNAc
# How it was run: as §1
# [4] = molecular target: Neu5Ac(a2-3)Gal(b1-4)GlcNAc(b1-3)Gal(b1-4)GlcNAc(b1-3)GalNAc
# How it was run: as §1
# [5] = molecular target: Neu5Ac(a2-3)Gal(b1-4)GlcNAc(b1-3)Gal(b1-4)GlcNAc(b1-3)[Neu5Ac(a2-3)Gal(b1-4)GlcNAc(b1-3)Gal(b1-4)GlcNAc(b1-6)]GalNAc
# How it was run: as §1
# [6] = molecular target: Neu5Ac(a2-3)Gal(b1-4)GlcNAc(b1-3)Gal(b1-4)GlcNAc(b1-6)[Gal(b1-3)]GalNAc
# How it was run: as §1
# [7] = molecular target: Neu5Ac(a2-3)Gal(b1-4)GlcNAc(b1-3)Gal(b1-4)[Fuc(a1-3)]GlcNAc
# How it was run: as §1
# [8] = molecular target: Neu5Ac(a2-3)Gal(b1-4)GlcNAc(b1-3)GalNAc
# How it was run: as §1
# [9] = molecular target: Neu5Ac(a2-3)Gal(b1-4)GlcNAc(b1-3)[Neu5Ac(a2-3)Gal(b1-4)GlcNAc(b1-6)]GalNAc
# How it was run: as §1
# [10] = molecular target: Neu5Ac(a2-3)Gal(b1-4)GlcNAc(b1-6)GalNAc
# How it was run: as §1
# [11] = molecular target: Neu5Ac(a2-3)Gal(b1-4)GlcNAc(b1-6)[Gal(b1-3)]GalNAc
# How it was run: as §1
# [12] = molecular target: Neu5Ac(a2-3)Gal(b1-4)GlcNAc(b1-6)[Neu5Ac(a2-3)Gal(b1-3)]GalNAc
# How it was run: as §1
# [13] = molecular target: Neu5Ac(a2-3)Gal(b1-4)GlcNAc6S
# How it was run: as §1
# [14] = molecular target: Neu5Ac(a2-3)Gal(b1-4)[Fuc(a1-3)]GlcNAc
# How it was run: as §1
# [15] = molecular target: Neu5Ac(a2-3)Gal(b1-4)[Fuc(a1-3)]GlcNAc(b1-2)Man
# How it was run: as §1
# [16] = molecular target: Neu5Ac(a2-3)Gal(b1-4)[Fuc(a1-3)]GlcNAc(b1-3)Gal
# How it was run: as §1
# [17] = molecular target: Neu5Ac(a2-3)Gal(b1-4)[Fuc(a1-3)]GlcNAc(b1-3)Gal(b1-4)GlcNAc
# How it was run: as §1
# [18] = molecular target: Neu5Ac(a2-3)Gal(b1-4)[Fuc(a1-3)]GlcNAc(b1-3)Gal(b1-4)[Fuc(a1-3)]GlcNAc(b1-3)Gal(b1-4)[Fuc(a1-3)]GlcNAc
# How it was run: as §1
# [19] = molecular target: Neu5Ac(a2-3)Gal(b1-4)[Fuc(a1-3)]GlcNAc(b1-3)GalNAc
# How it was run: as §1
# [20] = molecular target: Neu5Ac(a2-3)Gal(b1-4)[Fuc(a1-3)]GlcNAc(b1-6)[Gal(b1-3)]GalNAc
# How it was run: as §1
# [21] = molecular target: Neu5Ac(a2-3)Gal(b1-4)[Fuc(a1-3)]GlcNAc(b1-6)[Neu5Ac(a2-3)Gal(b1-3)]GalNAc
# How it was run: as §1
# [22] = molecular target: Neu5Ac(a2-3)Gal(b1-4)[Fuc(a1-3)]GlcNAc6S
# How it was run: as §1
# [23] = molecular target: Neu5Ac(a2-3)Gal6S(b1-4)GlcNAc
# How it was run: as §1
# [24] = molecular target: Neu5Ac(a2-3)Gal6S(b1-4)[Fuc(a1-3)]GlcNAc
# How it was run: as §1
# [25] = molecular target: Neu5Ac(a2-3)GalNAc
# How it was run: as §1
# [26] = molecular target: Neu5Ac(a2-3)GalNAc(b1-4)GlcNAc
# How it was run: as §1
# [27] = molecular target: Neu5Ac(a2-3)[GalNAc(b1-4)]Gal(b1-4)Glc
# How it was run: as §1
# [28] = molecular target: Neu5Ac(a2-3)[GalNAc(b1-4)]Gal(b1-4)GlcNAc
# How it was run: as §1
# [29] = molecular target: Neu5Ac(a2-3)[GalNAc(b1-4)]Gal(b1-4)GlcNAc(b1-3)GalNAc
# How it was run: as §1
# [30] = molecular target: Neu5Ac(a2-3)[Neu5Ac(a2-6)]GalNAc
# How it was run: as §1
# [31] = molecular target: Neu5Ac(a2-6)Gal
# How it was run: as §1
# [32] = molecular target: Neu5Ac(a2-6)Gal(b1-3)GlcNAc(b1-3)[Gal(b1-4)GlcNAc(b1-6)]Gal(b1-4)Glc
# How it was run: as §1
# [33] = molecular target: Neu5Ac(a2-6)Gal(b1-4)Glc
# How it was run: as §1
# [34] = molecular target: Neu5Ac(a2-6)Gal(b1-4)GlcNAc
# How it was run: as §1
# [35] = molecular target: Neu5Ac(a2-6)Gal(b1-4)GlcNAc(b1-2)Man
# How it was run: as §1
# [36] = molecular target: Neu5Ac(a2-6)Gal(b1-4)GlcNAc(b1-2)Man(a1-3)Man(b1-4)GlcNAc(b1-4)GlcNAc
# How it was run: as §1
# [37] = molecular target: Neu5Ac(a2-6)Gal(b1-4)GlcNAc(b1-2)Man(a1-3)[Gal(b1-4)GlcNAc(b1-2)Man(a1-6)]Man(b1-4)GlcNAc(b1-4)GlcNAc
# How it was run: as §1
# [38] = molecular target: Neu5Ac(a2-6)Gal(b1-4)GlcNAc(b1-2)Man(a1-3)[GlcNAc(b1-2)Man(a1-6)]Man(b1-4)GlcNAc(b1-4)GlcNAc
# How it was run: as §1
binder,measurement,setting,value
B1,glycan array binding signal (z-score),[1],-0.14
same,glycan array binding signal (z-score),[2],-0.148
same,glycan array binding signal (z-score),[3],0.079
same,glycan array binding signal (z-score),[4],-0.253
same,glycan array binding signal (z-score),[5],-0.255
same,glycan array binding signal (z-score),[6],-0.256
same,glycan array binding signal (z-score),[7],-0.26
same,glycan array binding signal (z-score),[8],-0.229
same,glycan array binding signal (z-score),[9],-0.262
same,glycan array binding signal (z-score),[10],0.834
same,glycan array binding signal (z-score),[11],-0.272
same,glycan array binding signal (z-score),[12],-0.275
same,glycan array binding signal (z-score),[13],-0.249
same,glycan array binding signal (z-score),[14],-0.271
same,glycan array binding signal (z-score),[15],-0.258
same,glycan array binding signal (z-score),[16],-0.272
same,glycan array binding signal (z-score),[17],-0.244
same,glycan array binding signal (z-score),[18],-0.253
same,glycan array binding signal (z-score),[19],-0.091
same,glycan array binding signal (z-score),[20],-0.236
same,glycan array binding signal (z-score),[21],-0.18
same,glycan array binding signal (z-score),[22],-0.26
same,glycan array binding signal (z-score),[23],-0.273
same,glycan array binding signal (z-score),[24],-0.279
same,glycan array binding signal (z-score),[25],-0.253
same,glycan array binding signal (z-score),[26],-0.268
same,glycan array binding signal (z-score),[27],-0.29
same,glycan array binding signal (z-score),[28],-0.267
same,glycan array binding signal (z-score),[29],-0.242
same,glycan array binding signal (z-score),[30],-0.007
same,glycan array binding signal (z-score),[31],-0.209
same,glycan array binding signal (z-score),[32],-0.267
same,glycan array binding signal (z-score),[33],-0.227
same,glycan array binding signal (z-score),[34],-0.267
same,glycan array binding signal (z-score),[35],-0.207
same,glycan array binding signal (z-score),[36],-0.244
same,glycan array binding signal (z-score),[37],-0.272
same,glycan array binding signal (z-score),[38],-0.271
